Experimental data taken from the supplement of paper PMC10126150.
Sequences with one replicate were seen in a single cluster, so their values are uncertain.

Test system: ATP
Test: switch fluorescence ratio, 500 uM ATP over buffer (Cy3 cluster intensity, sum of 5 cycles each) (fold (ratio)); higher = stronger signal-on switching upon ATP binding; sequences stand for … in TCGTCGGCAGCGTCAGATGTGTATAAGAGACAGTTTTTTTTTTTTTTTTTTTTTTTTT…TC
Conditions: aptamer strand: ATP DNA aptamer (quencher-CACCTGGGGGAGTATTGCGGAGGAAGG + anchor), 100 nM annealed; ATP concentration: 500 uM; one replicate
In short: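 The fluorescence ratio divides summed target-cycle Cy3 intensity by summed buffer-cycle Cy3 intensity for each cluster and is averaged per switch-domain sequence. Cy3-labelled switching-strand clusters on a modified Illumina MiSeq flow-cell were annealed to 100 nM quencher-labelled ATP aptamer, then imaged in selection buffer and again after 15 min with 500 uM ATP at 22 °C. Five such cycles were run, with NaOH stripping and re-annealing between them, and clusters outside 100-1000 RFU were excluded.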
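Note: ATP exposure 15 min at 22 °C before imaging.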

Sequence	switch fluorescence ratio
TCCTGTAGTG	0.983
GATCTTTAA	0.967
ACTTTAATTA	0.989
CGGATGTCAA	0.993
CACGGGGTGC	1.06
GCCCGCTCGG	1
TTAGCGACCC	1.45
CCCCGAAGGG	0.961
CTTGGTAGTC	0.974
GGCCTCTATA	1.04
GTAGAGGGGT	1.06
GTAGCGGGAT	1.02
TTGTAATTTG	1.01
GAAATTAGTA	0.964
AGCTGTGAAC	0.994
GAAATTTGAC	0.956
ATAATACGG	1
AACATATAT	1.01
AATTCTTCCA	1.05
GTGACTGATC	1.03
CTCACGGA	1.2
CGTTGGTTAG	1.05
CTTAACGAAA	1.01
AGTAACGGCC	1
CTTCAGAACG	1.09
GAGGCGTGTA	1.01

Sequence	switch fluorescence ratio
ATAGTCATG	0.976
GGCACATTGC	1.04
AGACTGGGTC	1.01
TACGTGCTGC	0.963
GCACCCCATT	0.966
ATAATACCGT	1.01
TGCCTCCTAA	1.34
ACTGACATTT	1.07
AAGTGGTATA	0.993
CTGACTTGTG	0.961
ACCCGGAGAA	1.09
CGTGAGATGT	0.981
ATTACGTGGT	0.977
CGAGGGGGT	0.979
TATAGATGTA	1.01
CGATTCGTAG	1.03
AAACCACTGT	1.02
ACTATGTGTC	1.12
GCATCTGACA	1.03
CCCCTGTCTG	1.06
CATGTGGTGC	1.01
CTTGTAATAT	1.04
GTTCATCGAG	1.04
TGCGCGTTCC	1.14
AGAGTAAA	1
AATTGAAAGT	1.05

Sequence	switch fluorescence ratio
AGTTCTCTTC	1.02
CGAAGAGTAT	0.954
CGCACCTTAT	1.11
CGACTCATT	1.14
AACCATTTC	1.03
AGATGACCGC	1.1
GACCGCGGCG	0.953
TCGCTTGTCT	0.956
TTGTCAATAG	1.53
TTGAAACTGG	0.977
AACAGGGGAC	1.4
TCCTATTACC	1.04
CTCTATACGC	1.07
AAATATGGGG	1.04
CAATGTGGAT	0.995
AAATTACCAC	1.1
AGCATGGTTA	0.988
TGGTCTCGCT	1.01
AGAATTATTT	0.967
ATTTCCTAGT	1.03
CAATTTATAC	1.22
TGATGCTACA	0.989
CGCATGGCGG	0.981
TCGTTAGGCG	0.948
GAAGAAGAAC	1.03
CGCCTGGATC	1.08

Sequence	switch fluorescence ratio
CACTAGAGTC	0.996
TCTAAGACTC	1.03
GGGCGAGAAG	0.969
TTCCAGCGCC	1.32
TCCGTTCCGT	1.13
TCGAATCAAG	0.973
ATTCGGAAAA	0.998
GAAATAATTT	1.01
CAGTGTAGTT	1.02
TTGAAGGTGA	1.16
CCAACGACGA	2.9
TTTCCCAATG	1.05
TCCACTAGTC	1.08
TACAGGGCGG	1.03
CTGGGTGAAT	0.98
CTGTTAAACC	1.04
TTCCCCCTTA	1.09
GCCATTTCGC	0.992
CTCAGAAAGT	0.999
GTTGTTCATG	0.989
TGGCTGAACT	0.97
AACAGATTTG	0.988
AGGATATCTG	0.966
TTAGAGTGCT	0.938
CGTGCCTCGG	0.994
GGAGTGATG	1.05

Sequence	switch fluorescence ratio
TGGCATACCT	1.17
CAGCCCCAAG	1.05
CGTCAATGAT	1
AGTAGGAACG	0.985
AATACTAGGA	1.13
ACAAAAGAGG	0.981
CCATCCCGGG	1.12
GCACAGTGGC	0.949
CAGGAACAGC	1.04
AATTAGCCTA	0.979
GCTGATCATC	0.976
TTATAGACCG	0.985
ACAATTTAGA	1.01
CGAGCCTGGA	0.987
GTGGGCTTGG	0.969
TTCGCTGCGT	1.02
GATAAACCAG	1.05
AATTTTTTAC	0.994
GTAGGAAACG	1.31
CGCCCTGCCA	0.969
CTGTGCTTTG	1.05
ACGGCAGAGC	0.999
GTTAGCGACT	0.98
CGTAATGAGG	0.998
GGACGAAGT	1.04
TGGTCTGCAG	1.01

Sequence	switch fluorescence ratio
TAAACGCGCC	1.08
TGAAGTTACA	1.06
TACGAACCAT	1.33
GGTTGACC	0.963
TATACTTTGG	1
GGCATCAAGA	0.976
GATAAGGGC	1.01
CACGATTGCG	1.01
CGTAACGAGC	0.976
GAATTGAGGA	1.04
CGGAGTGGTC	1.11
TGTGGGTTAA	1
TAGTAGCAG	1.29
CAGTATCAAC	1.02
TCCCAAAAAC	1.14
TAGCAGTGTT	0.986
TCCGCGGACA	1.06
TGGCACGGAC	1.37
TTCAAATTGA	1.28
TATTGGCTGG	1.05
GGTTGTTAGT	1
AGTCTGTCCG	0.993
TATTAGAGGG	1.01
GCGTTGTGTA	1.02
AGACCGAAGT	1.05
GCAGACTGGG	0.978

Sequence	switch fluorescence ratio
TAATGTACTA	1.07
TTCACCACCG	1.06
ATTTATTGTC	0.945
GTATCGTCGG	1.01
GGGCGGATGC	0.959
AGTGGTCAGG	0.989
TCTCTCGATG	0.983
GTTATGGCAG	0.976
TAGTGCGCT	1.02
CCGGGTATGC	2.17
AAGGTGACTA	1.02
AGTCATGAGC	0.992
CGTATCTAGA	0.985
CATCTTAGCG	1
AGTTACCTAC	1.27
CACCAGTGTC	1.58
TGTCAAAAAA	0.995
TACAGGAGTC	0.98
ACTAAATCGT	1.02
ATCTACGCAT	5.51
GGATGGACCG	1.08
CGTCAGTTTG	0.968
GAGAATTTAC	1.03
GACATTAAGA	1.02
ATAGTGAGGC	1.04
AGATGCGCCG	0.964

Sequence	switch fluorescence ratio
AATCCTAAAA	0.984
GGTATCCCTG	1.02
GAGTGCAAA	1.02
TTCCTGTCAT	0.988
GATCCTCTCT	1.01
GCCCTTTGGT	0.967
CTTTGCATG	1.03
TTTCCTAGTA	1.01
ACTTGTATCT	0.949
GAAATACACC	1.2
CTTTCGAGGT	1.02
AGCAAGGGTA	0.969
TCGATTCGTT	1.36
AGGAGCCTGT	0.988
GGGGCCCGAG	0.978
CAAGCAATT	2.05
AAATTCGCCC	0.974
ATATCATTAG	0.993
GAGAAGCAGA	1.01
